Results reported in PubChem BioAssay AID686978 (National Center for Advancing Translational Sciences (NCATS), 2013).
Among all 420,000 compounds or so, about 64,000 (15%) were called active. The shares of active, inactive and inconclusive entries below differ from those in the screen. Calls follow the shape of the dose curve; as a rule, active = well fitted inhibition curve with a large enough effect; inconclusive = small, poorly fitted or top-dose-only effect; inactive = flat fitted curve, though single readings scatter. Potencies of inconclusive entries are left out as doubtful fits.

Assay: qHTS for Inhibitors of human tyrosyl-DNA phosphodiesterase 1 (TDP1): qHTS in cells in absence of CPT; also: nearly all actives have a fitted effect of over 55% in size
Conditions: DT40 Tdp1-/- hTDP1 cells, no CPT, ATP luminescence, 48 h; activity change, negative = growth inhibition: at 46.2 µM (top of the series) unless noted
In short: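 Chicken DT40 Tdp1-/- cells complemented with human TDP1, screened without camptothecin (DMSO vehicle only), 400 cells/well. Compounds pin-transferred, cells incubated at 37 °C for at least 48 hr. Growth read as ATP-dependent luminescence (CellTiter-Glo, 30 min at RT).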
% is scaled to controls: 0 for no effect and ±100 for the full control effect; potency is read from the fitted curve at half-maximal effect; tags tell the direction and shape of the fitted curve.

Compound	activity change, negative = growth inhibition	Potency
O=C(Cc1cccs1)N/N=C/C=C/c1ccco1	inconclusive: -33.8% [inhibitor]	–
NC(=O)c1ccsc1NC(=O)COC(=O)CNC(=O)c1ccc(Cl)cc1	–	inactive
COc1ccc(NC(=O)CSc2nc3ccccc3n2CC(=O)N(C)c2ccc(F)cc2)cc1	–	active: 14.6 µM
COc1ccc(-c2cc(C(F)F)nc(-n3nc(C)cc3C)n2)cc1	–	inconclusive [inhibitor, single point]
COc1ccc(-c2ccnc(SCC(=O)N3CCN(c4ccccc4)CC3)n2)cc1	–	inactive
C[C@H](CO)N1C[C@H](C)[C@@H](CN(C)S(=O)(=O)c2ccccc2)Oc2ccc(NC(=O)Nc3ccc4c(c3)OCO4)cc2C1=O	–	inconclusive [inhibitor, single point]
COc1ccc(C(=O)Nc2nc3ccccc3s2)cc1	–	inconclusive [inhibitor, single point]
CC1Sc2ccc(S(=O)(=O)CCC(=O)N(C)Cc3ccccc3)cc2NC1=O (stereo unspecified)	–	inconclusive [inhibitor, single point]
CCS(=O)(=O)N1CCc2cc(C(=O)NCCc3ccccc3)ccc21	–	inactive
O=C1C(=O)N(CCCn2ccnc2)C(c2ccc([N+](=O)[O-])cc2)/C1=C(\O)c1ccc2c(c1)OCCO2 (stereo unspecified)	–	inactive
OCC[C@@H]1C[C@H](O)[C@@H](O)[C@@]2(Cc3ccccc3O2)O1	–	inactive
CCCN1CCN(CCNC(=O)Nc2ccc(OC)c(OC)c2)CC1	–	inactive
O=C(Nc1ccc(Br)cn1)c1ccc([N+](=O)[O-])o1	–	active: 5.17 µM
O=c1[nH]cnc2c1ncn2-c1ccc(N(CCO)CCO)cc1	–	inactive
Cc1ccc(/C=C/C(=O)Nc2nnc(SCc3ccc(C#N)cc3)s2)o1	–	inconclusive [inhibitor, single point]
NC(=O)Cc1ccc(C(=O)c2ccc(Cl)cc2)s1	–	inconclusive [inhibitor, single point]
CCOC(=O)C1CCC(CN(Cc2ccc(Cl)cc2)S(=O)(=O)c2ccc(Br)cc2)CC1 (stereo unspecified)	–	inconclusive [inhibitor, single point]
Cc1cccc(OCc2nnc(SCC(=O)NCCc3ccccc3)o2)c1	–	inactive
COc1ccc(-c2onc(C)c2C)cc1S(=O)(=O)N(C)Cc1ccco1	–	inconclusive [inhibitor, single point]
Cc1ccc2ccccc2c1C(O)c1ncc(-c2cccc(F)c2)[nH]1 (stereo unspecified)	–	inconclusive [inhibitor, single point]
COc1ccc(Br)cc1/C=N/NC(=O)c1nc(-c2ccccc2)n2c1CCCCC2	–	inconclusive [inhibitor, single point]
O=C1NC[C@H](Cc2ccc(O)cc2)N(CCc2cccc(F)c2)C1=O	–	inactive
O=C(C1CCN(S(=O)(=O)c2ccc(Br)s2)CC1)N1CCc2ccccc21	–	inconclusive [inhibitor, single point]
CCOc1ccc(-c2nnc(SCC(=O)NC(C)(C)C)nc2-c2ccc(OCC)c(OC)c2)cc1OC	–	inactive

Compound	activity change, negative = growth inhibition	Potency
CCOc1ccc(NC(=O)CN(C)C(=O)c2cc(S(=O)(=O)N3CCCCCC3)ccc2OC)cc1OCC	–	inactive
CCCn1nc(NC(=O)c2ccco2)c2cc3ccc(C)cc3nc21	–	inconclusive [inhibitor, partial curve]
COc1ccc(CCN=C(N)Nc2nc(C)cc(C)n2)cc1	–	active: 7.31 µM
COc1cccc(-n2c([S-])c(C(=O)Nc3ccc(S(=O)(=O)N4CCOCC4)cc3)[n+]3cc(C(N)=O)ccc23)c1	–	inconclusive [inhibitor, single point]
CCS(=O)(=O)N1CC(=O)N(c2cccc(Cl)c2C)C(C)(C(=O)NC2CCCCC2)C1 (stereo unspecified)	–	inactive
COc1ccccc1-n1c(SCC(=O)Nc2ccc(F)cc2)nc2c(c1=O)SCC2	–	inconclusive [inhibitor, single point]
Cc1noc(C)c1CSc1nnc(-c2ccncc2)n1-c1cccc(Cl)c1C	–	inconclusive [inhibitor, single point]
O=C(c1cccc(F)c1)N(Cc1nc2ccccc2c(=O)[nH]1)C1CCCC1	–	inconclusive [inhibitor, single point]
Cc1ccc(OCCCn2c(CO)nc3ccccc32)cc1	–	inconclusive [inhibitor, partial curve, poor fit]
COc1ccc(C2=NN(S(C)(=O)=O)C(c3cccs3)C2)cc1 (stereo unspecified)	–	inactive
O=S(=O)(c1ccc(-n2cnnn2)cc1)N(C1CCCCC1)C1CCCCC1	–	inconclusive [inhibitor, single point]
CC(C)CSc1nnc2c3ccccc3n(C)c2n1	–	inconclusive [inhibitor, partial curve, poor fit]
N#CC1=CN(Cc2ccccc2)C=C(/C=N/Nc2ccccc2)C1	–	inconclusive [inhibitor, single point]
Cc1ccc(OCC(=O)Nc2ccc(-c3nc4ncccc4o3)cc2)cc1	–	inactive
COc1ccc(CCNC(=O)CSc2nnc(-c3cccc(C)c3)o2)cc1OC	–	inactive
COc1cccc2cc(C(=O)Nc3cc(Cl)ccc3N3CCOCC3)c(=O)oc12	–	inconclusive [inhibitor, single point]
Cn1c(=O)c2cc(NC(=O)Cc3ccccc3F)ccc2n1C/C=C/c1ccccc1	–	inconclusive [inhibitor, single point]
Cc1c(C(=O)Nc2cccc(S(=O)(=O)N3CCCC3)c2)oc2ccccc12	–	inactive
CCN(CCCNC(=O)c1cc2cc3ccc(C)cc3nc2s1)c1ccccc1	–	active: 25.9 µM
Cc1occc1C(=O)Nc1sc2c(c1C(N)=O)CCCCC2	–	inconclusive [inhibitor, single point]
CC(C)Oc1ccc(C(=O)Nc2ncn[nH]2)cc1	–	inactive
O=C1COc2ccccc2N1Cc1ccc(Cl)cc1	–	inconclusive [inhibitor, single point]
O=C(NCc1ccccn1)c1ccc(OC2CCN(Cc3ccc(F)cc3F)CC2)cc1	–	inconclusive [inhibitor, single point]
Cc1cc(C)c2nc(SCC(=O)Nc3ccccc3N3CCOCC3)c(C#N)cc2c1	–	inconclusive [inhibitor, single point]

Compound	activity change, negative = growth inhibition	Potency
COc1ccc(N2CCN(C(=O)c3ccc(CS(=O)(=O)c4ccccc4C)o3)CC2)cc1	–	inconclusive [inhibitor, single point]
Cc1cccc(NC(=O)C2COc3ccccc3O2)c1 (stereo unspecified)	–	inactive
Cn1ccnc1SCC(=O)Nc1ccc(SC(F)F)cc1	–	inconclusive [inhibitor, single point]
COc1ccc(NC(=O)C2CCCN2S(=O)(=O)c2ccc(Cl)cc2)cc1 (stereo unspecified)	–	inconclusive [inhibitor, single point]
CC(=O)N1CCN(c2ccc(NC(=O)c3ccccc3Cl)cc2)CC1	–	inconclusive [inhibitor, single point]
O=C(COC(=O)c1ccccc1Br)NCCN1C(=O)CSC1=O	–	inactive
OC1(c2ccc(Br)cc2)CN(c2ccccc2)C2=[N+]1CCS2 (stereo unspecified)	–	inconclusive [inhibitor, single point]
COc1cc(/C=N/NC(=O)c2ccc3ccccc3c2)ccc1Oc1ccc([N+](=O)[O-])cn1	–	inconclusive [inhibitor, single point]
CS(=O)(=O)N1c2ccccc2[C@@]2(Br)C[C@H]3C(=O)N[C@@H](Cc4ccccc4)C(=O)N3[C@@H]12	inconclusive: -32% [inhibitor]	–
Cc1occc1C(=O)NCCCCc1ccccc1	–	inactive
COc1cccc(-c2cnc(C(O)c3ccc(F)c(C)c3)[nH]2)c1 (stereo unspecified)	–	inconclusive [inhibitor, single point]
O=[N+]([O-])c1ccc(Oc2ccc(-c3cnc4ccccc4n3)cc2[N+](=O)[O-])cc1	–	active: 14.6 µM
O=S(=O)(c1cccc(F)c1)N1CCC(c2nc3ccccc3s2)CC1	–	inactive
CC1CCC(NC(=O)c2nn(C)c3c2CSc2ccccc2-3)CC1 (stereo unspecified)	inconclusive: -30.4% [inhibitor]	–
CCC1(C)Cc2ccccc2-c2nc(NCCO)n(-c3ccccc3)c(=O)c21 (stereo unspecified)	–	active: 4.61 µM
Cc1ccc(NC(=O)c2oc3ccc(S(=O)(=O)N(C)C4CCCCC4)cc3c2C)cc1Cl	–	inconclusive [inhibitor, partial curve]
COc1ccc(/C=C\c2onc(C)c2S(=O)(=O)N2CCC(C(=O)NCc3ccco3)CC2)cc1	–	inconclusive [inhibitor, partial curve]
COc1cc2ccccc2cc1C(=O)NC(=S)Nc1nnn(C)n1	–	active: 16.4 µM
CC(NC(=O)c1ccccc1Br)c1ccc2c(c1)CCCC2 (stereo unspecified)	–	inconclusive [inhibitor, single point]
COc1ccc(-c2nc(CSCC(=O)N3CCN(c4ccc(OC)cc4)CC3)c(C)o2)cc1	–	active: 10.3 µM
CNC(=O)/C(C#N)=C\c1ccc(CNS(=O)(=O)c2ccccc2)o1	–	inconclusive [inhibitor, partial curve, poor fit]
C[C@@H]1CN([C@@H](C)CO)C(=O)CCCn2nncc2CO[C@H]1CN(C)S(=O)(=O)c1ccc(-n2cccn2)cc1	–	inactive
CCOC(=O)CNC(=O)N(C)[C@H]1C[C@H]2c3[nH]c4ccccc4c3CCN2C[C@H]1[C@H](C)O	–	inactive
